Experimental data: the supplement of paper PMC7826260
The other results are listed elsewhere or left out. The data describe in vitro nicking of single-stranded DNA by Rep domains for 1 h at 37 °C with 3 µM enzyme; only the middle of the 90-letter strands is printed. Uncut reads are compared with the no-enzyme pool on a log2 scale; uncut sequences lie near 0, cut ones below; no hit call is given. Shares of all reads are compared, so uncut sequences can rise above 0 when many others are cut.

What was measured:
Test in all cases: uncleaved DNA left, log2 of reads against the no-enzyme library (log2 ratio); higher = less cleavage (more negative = more Rep cleavage of the k-mer); sequences stand for … in CTCGTCCG…ACCGGAGA
[1] = tested on: T1, Rep nickase domain of Muscovy duck circovirus
T1 sequence (protein, residues 1-111, tag omitted): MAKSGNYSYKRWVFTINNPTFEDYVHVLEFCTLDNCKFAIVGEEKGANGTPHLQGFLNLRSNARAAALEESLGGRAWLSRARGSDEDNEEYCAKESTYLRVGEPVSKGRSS
Method: (§1)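 A pool of 90-nt single-stranded DNAs with seven random bases just before the constant AC of the nick site (name = the seven bases) was cut by 3 µM recombinant His6-SUMO-tagged Rep nickase domain (300 nM DNA, 50 mM HEPES pH 8.0, 50 mM NaCl, 1 mM MnCl2, 1 h, 37 °C, three replicates). Uncut DNA was amplified and sequenced.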

[2] = tested on: T2, Rep nickase domain of banana bunchy top virus
T2 sequence (protein, residues 1-94, tag omitted): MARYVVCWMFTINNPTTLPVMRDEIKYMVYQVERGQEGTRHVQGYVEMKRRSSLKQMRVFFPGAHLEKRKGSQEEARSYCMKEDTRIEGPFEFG
Method: as §1

[3] = tested on: T3, Rep nickase domain of cabbage leaf curl virus
T3 sequence (protein, residues 1-116, tag omitted): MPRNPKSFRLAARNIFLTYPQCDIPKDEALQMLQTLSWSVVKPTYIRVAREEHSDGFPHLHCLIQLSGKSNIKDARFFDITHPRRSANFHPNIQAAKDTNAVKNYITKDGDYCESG
Method: as §1

[4] = tested on: T4, Rep nickase domain of chickpea chlorotic dwarf virus
T4 sequence (protein, residues 1-124, tag omitted): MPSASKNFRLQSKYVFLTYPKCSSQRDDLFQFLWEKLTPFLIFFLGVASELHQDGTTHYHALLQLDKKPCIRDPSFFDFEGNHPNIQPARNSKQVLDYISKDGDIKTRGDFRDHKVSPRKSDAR
Method: as §1

[5] = tested on: T5, Rep nickase domain of faba bean necrotic yellows virus
T5 sequence (protein, residues 1-98, tag omitted): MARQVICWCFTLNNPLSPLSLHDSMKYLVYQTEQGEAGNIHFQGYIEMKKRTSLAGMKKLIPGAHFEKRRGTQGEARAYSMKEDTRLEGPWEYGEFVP
Method: as §1

[6] = tested on: T6, Rep nickase domain of maize striate mosaic virus
T6 sequence (protein, residues 1-117, tag omitted): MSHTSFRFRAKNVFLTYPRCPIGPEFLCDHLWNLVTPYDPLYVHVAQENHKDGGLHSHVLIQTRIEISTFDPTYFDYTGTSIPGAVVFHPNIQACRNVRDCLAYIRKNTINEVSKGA
Method: as §1

[7] = tested on: T7, Rep nickase domain of porcine circovirus 2
T7 sequence (protein, residues 2-116, tag omitted): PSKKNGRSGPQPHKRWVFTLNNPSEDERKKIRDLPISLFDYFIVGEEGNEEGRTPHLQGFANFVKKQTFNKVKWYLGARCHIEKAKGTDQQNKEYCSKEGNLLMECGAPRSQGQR
Method: as §1

[8] = tested on: T8, Rep nickase domain of tomato golden mosaic virus
T8 sequence (protein, residues 1-124, tag omitted): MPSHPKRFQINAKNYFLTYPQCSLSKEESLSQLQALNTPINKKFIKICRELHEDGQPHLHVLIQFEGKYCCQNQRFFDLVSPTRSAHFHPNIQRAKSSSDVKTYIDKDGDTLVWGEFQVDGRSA
Method: as §1

[9] = tested on: T9, Rep nickase domain of tomato yellow leaf curl virus
T9 sequence (protein, residues 1-136, tag omitted): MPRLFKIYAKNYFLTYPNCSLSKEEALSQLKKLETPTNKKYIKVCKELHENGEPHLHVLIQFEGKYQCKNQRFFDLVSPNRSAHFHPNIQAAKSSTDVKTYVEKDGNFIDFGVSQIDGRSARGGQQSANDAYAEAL
Method: as §1

[10] = tested on: T10, Rep nickase domain of wheat dwarf virus
T10 sequence (protein, residues 1-137, tag omitted): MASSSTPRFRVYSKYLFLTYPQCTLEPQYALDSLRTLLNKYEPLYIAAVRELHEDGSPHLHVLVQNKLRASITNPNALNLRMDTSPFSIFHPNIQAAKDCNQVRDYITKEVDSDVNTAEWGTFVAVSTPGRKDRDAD
Method: as §1

Row | Sequence | uncleaved DNA left (log2) [1] | uncleaved DNA left (log2) [2] | uncleaved DNA left (log2) [3] | uncleaved DNA left (log2) [4] | uncleaved DNA left (log2) [5] | uncleaved DNA left (log2) [6] | uncleaved DNA left (log2) [7] | uncleaved DNA left (log2) [8] | uncleaved DNA left (log2) [9] | uncleaved DNA left (log2) [10]
1 | AACATCA | -0.0164 | 0.0785 | -0.0413 | -1.81 | -0.0294 | -0.435 | -0.0638 | 0.0288 | 0.0686 | 0.0634
2 | TAATTAG | 0.202 | 0.0665 | -1.09 | -1.25 | 0.202 | -1.34 | 0.142 | 0.0409 | 0.123 | -0.0453
3 | CGATAAC | 0.0265 | -0.00878 | -0.431 | -1.24 | 0.0379 | -0.473 | 0.00955 | 0.0754 | -0.00206 | 0.0414
4 | GTCGGAA | 0.109 | 0.0481 | 0.482 | 1.05 | -0.035 | 1.77 | 0.0838 | 0.0397 | 0.19 | 0.184
5 | TCTACCT | 0.0179 | 0.214 | -0.0179 | -2.58 | 0.0604 | -0.116 | -0.965 | 0.0571 | 0.0615 | 0.014
6 | GTCGGTG | 0.0405 | 0.0882 | 0.18 | 0.528 | -0.0539 | 0.559 | 0.015 | 0.184 | -0.0473 | 0.0368
7 | CATGTTT | 0.0511 | -1.23 | -0.351 | -2.6 | 0.0572 | -0.594 | -1.1 | 0.0448 | 0.153 | -0.106
8 | TCAGTTA | 0.0441 | -0.0468 | 0.089 | -0.401 | -0.0818 | -0.0146 | -0.00105 | 0.0579 | -0.0214 | -0.0867
9 | CCAAAAG | 0.087 | 0.141 | -0.817 | -0.202 | 0.0649 | -1.21 | 0.141 | -0.0665 | -0.0396 | 0.0577
10 | AGGAGTG | 0.102 | 0.0638 | -0.00349 | 0.561 | 0.108 | 1.08 | 0.0789 | 0.122 | -0.0691 | 0.0608
11 | TAGGGAA | 0.0657 | 0.0403 | 0.483 | 1.34 | -0.0188 | 1.71 | 0.142 | 0.0591 | -0.0205 | 0.118
12 | TACATAT | 0.0365 | -0.0867 | -0.733 | -2.47 | -0.0303 | -0.721 | -1.32 | -0.123 | -0.0928 | -0.0449
13 | TCGGGGG | 0.0544 | 0.00288 | 0.173 | 0.236 | 0.049 | 0.15 | 0.235 | 0.0205 | 0.0629 | -0.0432
14 | ACTTACC | -0.184 | -0.0264 | -0.225 | -0.787 | -0.0352 | -0.0179 | -0.324 | -0.0362 | -0.106 | -0.119
15 | GAAGGAC | 0.127 | 0.117 | 0.794 | 1.95 | 0.113 | 2.06 | 0.34 | 0.149 | 0.132 | 0.196
16 | GTTGCAG | 0.0173 | 0.121 | -0.4 | -0.372 | 0.118 | -0.728 | 0.285 | 0.123 | 0.124 | 0.0864
17 | GATTACG | -0.0202 | -0.0247 | -0.806 | -0.486 | -0.0308 | -0.854 | 0.014 | -0.0224 | -0.0968 | -0.0841
18 | AATACCG | -0.0666 | 0.00867 | -0.878 | -0.716 | 0.0767 | -1.05 | 0.0306 | -0.000124 | -0.0497 | -0.104
19 | TACCTTT | -0.218 | -0.274 | -1.78 | -2.79 | -0.144 | -0.708 | -3.65 | -0.284 | -0.172 | -0.481
20 | CGCAAAG | 0.0579 | 0.0883 | -0.554 | -0.344 | 0.12 | -0.905 | 0.188 | 0.0672 | 0.12 | 0.14
21 | ATCACAG | -0.0119 | 0.0293 | -0.797 | -0.532 | 0.059 | -1.21 | 0.131 | 0.0779 | 0.00827 | 0.0135
22 | CTCGACG | 0.0637 | 0.0513 | -0.524 | -0.555 | 0.136 | -0.922 | 0.154 | 0.0422 | 0.0748 | -0.0417
23 | TTATGTC | -0.0156 | -0.155 | -0.0996 | -0.451 | -0.0367 | -0.998 | -0.211 | -0.16 | -0.0431 | -0.0941
24 | AGACATG | -0.0641 | -0.0332 | 0.144 | 0.845 | -0.0755 | 0.875 | 0.0637 | -0.0299 | -0.145 | 0.0672
25 | TATGCAC | 0.0739 | 0.0983 | -0.194 | -0.399 | 0.228 | -0.984 | 0.188 | 0.0497 | 0.0542 | 0.00879
26 | AAGCATC | -0.0246 | 0.108 | -0.0035 | -0.272 | -0.0293 | -0.424 | -0.0183 | -0.0608 | -0.0304 | 0.0867
27 | GAAGGGG | 0.0173 | 0.112 | 0.364 | 0.685 | 0.0183 | 0.638 | 0.171 | 0.104 | -0.0452 | 0.0263
28 | ATAGATA | -0.0306 | -0.019 | -0.0621 | -0.867 | -0.029 | 0.0641 | 0.0123 | 0.0837 | -0.222 | -0.0721
29 | TCTACGG | -0.0245 | 0.0788 | 0.586 | 1.57 | -0.0682 | 2.17 | 0.165 | 0.0307 | -0.000631 | 0.0407
30 | CAGGGCA | 0.0863 | 0.0161 | 0.00461 | 0.194 | 0.0121 | -0.0539 | -0.0158 | -0.0425 | 0.0542 | -0.0116
